From PubChem BioAssay AID488969 (Vanderbilt High Throughput Screening Facility, 2010) come the findings set out here.

The full ranking holds about 110,000 compounds; the median of “z-score” is about -0.1, and the highest 2% start at about 2. The list shows a part of the results.

The target in this test is Metabotropic glutamate receptor 8 (Rattus norvegicus) (UniProt P70579). Put plainly: rat mGluR8 modulators via GIRK flux, primary screen, cell-based, thallium flux, HTS (AID 488969). To be noted: HEK293 rat mGluR8, GIRK (G protein-gated inwardly rectifying potassium channel) thallium flux, FluoZin2; at 10 µM; stronger effect = higher value; submaximal glutamate (EC20) added with thallium.
UniProt P70579, sequence (P70579 whole entry, looked up): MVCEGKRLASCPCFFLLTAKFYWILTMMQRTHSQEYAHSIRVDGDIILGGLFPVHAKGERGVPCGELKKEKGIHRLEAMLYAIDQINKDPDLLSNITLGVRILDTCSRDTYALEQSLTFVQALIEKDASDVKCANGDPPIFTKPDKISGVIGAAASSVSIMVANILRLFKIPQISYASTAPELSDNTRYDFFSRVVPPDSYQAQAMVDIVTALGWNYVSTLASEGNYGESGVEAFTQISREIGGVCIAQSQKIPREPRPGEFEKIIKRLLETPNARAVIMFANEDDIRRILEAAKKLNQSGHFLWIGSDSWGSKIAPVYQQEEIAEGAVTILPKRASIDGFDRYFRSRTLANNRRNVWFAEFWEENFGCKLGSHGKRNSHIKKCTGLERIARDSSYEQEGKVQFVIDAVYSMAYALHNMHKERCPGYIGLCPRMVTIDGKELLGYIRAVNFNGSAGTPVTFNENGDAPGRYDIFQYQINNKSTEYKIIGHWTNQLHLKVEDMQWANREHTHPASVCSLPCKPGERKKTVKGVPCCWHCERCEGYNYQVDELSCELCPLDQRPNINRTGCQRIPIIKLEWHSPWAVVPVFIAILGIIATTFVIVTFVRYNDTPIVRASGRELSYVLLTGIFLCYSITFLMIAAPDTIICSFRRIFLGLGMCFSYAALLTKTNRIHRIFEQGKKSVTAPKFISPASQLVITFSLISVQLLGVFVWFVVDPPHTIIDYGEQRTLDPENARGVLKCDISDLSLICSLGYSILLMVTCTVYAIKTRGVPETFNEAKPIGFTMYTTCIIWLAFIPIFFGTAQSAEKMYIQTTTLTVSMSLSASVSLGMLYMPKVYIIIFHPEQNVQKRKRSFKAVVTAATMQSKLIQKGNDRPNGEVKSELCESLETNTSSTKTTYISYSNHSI
As to `CC(C)c1ccc(CNCc2ccccc2)cc1`, the z-score was 0.0806.

With `CCOCCn1cnc2sc(C(=O)Nc3nc(C)c(C(=O)OCC)s3)c(C)c2c1=O`, the z-score is -0.151.

For `O=c1cnc2ccccc2n1CC1CCCCC1`, the z-score is -0.327.

As for `Cc1nc2ccccc2c(=O)n1NC(=O)/C=C/c1ccccc1Cl`, the z-score was -0.0204.

The molecule `Cc1nc2nc(CSc3nc4ccccc4s3)cc(=O)n2[nH]1` gave a z-score of -1.02.

`CCCCCNCc1cccn1C` gave a z-score of -0.0238.

As to `Cc1ccc(-c2nn(-c3cc(Cl)ccc3[N+](=O)[O-])c(=O)c3ccccc23)cc1C`, the z-score was 0.0569.

Take `CCN1C(=O)/C(=C\N(C)C)c2ccccc21`: the z-score stood at 0.713.

As for `CCn1c(Cc2ccccc2)nnc1SCC(=O)Nc1nc(C)cs1`, the z-score was -0.0666.

In the case of `COC(=O)CC1C(=O)NCCN1C(=O)c1ccccc1` (configuration not stated), the z-score came to 0.315.

In the case of `COc1ccc(/C(O)=C2/C(=O)C(=O)N(CC3CCCO3)C2c2ccc(OC)c(OC)c2)cc1` (configuration not stated), the z-score is -0.147.

Take `O=C1CN(C(=O)COC(=O)c2oc3ccccc3c2COc2ccccc2)c2ccccc2N1`: the z-score was -0.462.

Take `Cc1ccc(-n2c(N)c(C#N)c(-c3ccccc3)c(C#N)c2=O)cc1`: the z-score was -0.271.

`C/C(=N\Nc1nc2c(s1)CCCC2)c1ccc(Cl)cc1` came in with a z-score of -0.144.

Regarding `CC(C)c1ccc(N(CC(=O)NCCSC(C)(C)C)S(C)(=O)=O)cc1`, the z-score was determined as 0.114.

With `CCCc1nn(C)c2c1C(c1ccncc1)C(C#N)=C(N)O2` (configuration not stated), the z-score is -0.13.

Regarding `COc1ccc(CC(=O)NCc2ccccc2)cc1S(=O)(=O)N1CCOCC1`, the z-score stood at 0.0707.

`CCOC(=O)c1c(NC2=NS(=O)(=O)c3ccccc32)sc2c1CCC(C)C2` (configuration not stated) had a z-score of 0.00913.

`COc1ccc(N=C2S/C(=C\c3ccc(C)s3)C(=O)N2CC(C)C)cc1` had a z-score of -0.0979.

The molecule `C=C(C)c1cccc(C(C)(C)NC(=O)N2CCN(c3ccccn3)CC2)c1` showed a z-score of 0.0433.

`CCCCOC(=O)c1cc(C)nc2ccc(Br)cc12` gave a z-score of 1.52.

Turning to `Cc1cc(/C=N/NC(=O)CC2(C)OCCO2)c(C)n1-c1cc(Cl)cc(Cl)c1`, the z-score was -2.4.

Molecule `C[C@@H](C(=O)Nc1ccccc1N1CCOCC1)N1C(=O)C2CC=CCC2C1=O` (some centres not stated) gave a z-score of 0.142.

As to `O=C(O)CNS(=O)(=O)c1ccc(F)cc1`, the z-score stood at 0.5.

In turn, `COC(=O)c1c(C)[nH]c(C(=O)/C=C/c2cccc(Cl)c2)c1C` yielded a z-score of -0.238.

As for `CC1=C(C(=O)OCCOC(C)C)C(c2cc3c(cc2Br)OCO3)C2=C(CCCC2=O)N1` (configuration not stated), the z-score is 0.16.

In turn, `COc1ccc(/C=C2/C(=O)N(Cc3ccccc3)N=C2C)cc1` displayed a z-score of -0.964.

`CCOC(=O)c1c(C)sc2c1N(C(=O)CN(CC)CC)c1ccccc1S2` came in with a z-score of 0.236.

Molecule `C(=C\c1ccccc1)/C=N/Nc1nc(N2CCOCC2)nc(N2CCOCC2)n1` registered a z-score of -0.0103.

`Cc1ccc(Oc2c(C=O)c3ccccc3n2C)cc1` displayed a z-score of -0.989.

`Cc1ccc(N2C(=O)c3ccc(N)cc3C2=O)cc1` yielded a z-score of -0.0975.

Consider `O=C(CN1CCN(c2ccccn2)CC1)NC(=O)NC1CCCCC1`, for which the z-score was -0.285.

`O=C(COC(=O)c1c[nH]c(=O)[nH]c1=O)NCc1ccccc1` yielded a z-score of -0.131.

As to `CCn1c(=N)n(CC(=O)c2ccco2)c2ccccc21`, the z-score worked out at 0.33.

On to `Cc1ccnc(NC(=O)c2cccc(NC(=O)COc3ccccc3)c2)c1`, for which the z-score is -0.283.

As for `COc1ccc(Cn2nnc3c(=O)[nH]c(C4CCN(C(=O)c5ccccc5Cl)CC4)nc32)cc1`, the z-score was -0.185.

In the case of `Cc1ccc(C)c(OCC(=O)N2CCN(C(=O)c3ccco3)CC2)c1`, the z-score is -0.0604.

For the molecule `CNC(=O)CSc1nc(N)c2c3c(sc2n1)CCC3`, the z-score is 0.0366.

As for `COc1ccccc1OC(C)C(=O)O` (configuration not stated), the z-score was -0.0437.

The molecule `CCOC(=O)c1[nH]c2ccccc2c1NC(=O)c1ccc(Br)o1` yielded a z-score of -0.785.

Regarding `CC(C)C(=O)Nc1ccc(NC(=O)c2ccc([N+](=O)[O-])cc2Cl)cc1`, the z-score came out at 1.27.

Molecule `COc1cccc(-n2c(C)nc3c(cnn3-c3ccc(C)cc3)c2=O)c1` gave a z-score of -0.574.

Turning to `CCOC(=O)c1cc(C(=O)OCC)c2ccccn2c1=O`, the z-score was -0.145.

The molecule `O=C(c1cnn2c(C(F)F)cc(-c3ccccc3)nc12)N1CCOCC1` came in with a z-score of -0.341.

`COCCCNc1ncnc2c1cnn2-c1ccc(C)cc1C` came in with a z-score of -0.0529.

The molecule `CC(C(=O)Nc1ccccc1Sc1ccccc1)N(c1ccccc1)S(C)(=O)=O` (configuration not stated) came in with a z-score of -0.314.

Regarding `COc1ccc(CNC(=S)Nc2cccc(C)c2C)cc1`, the z-score was -0.341.

In turn, `COc1ccc(N2C(=O)CSC23C(=O)N2CCCc4cccc3c42)cc1` (configuration not stated) had a z-score of -0.413.

The molecule `N#C/C(=C\Nc1ccc2c(c1)OCCO2)c1nc(-c2ccccc2)cs1` gave a z-score of 0.0237.

Regarding `CCc1ccc(CNCCSc2nnnn2C)cc1`, the z-score worked out at 0.41.

`COc1ccc(Cc2nnc(SCC(=O)NCc3ccco3)o2)cc1`: the z-score is -0.0075.

On to `CC1=C(C)CC(C(=O)NNC(=O)c2ccccc2O)C(C(=O)O)C1` (configuration not stated), for which the z-score is -0.196.

Turning to `Brc1ccc2[nH]c3c(N4CCc5ccccc5C4)ncnc3c2c1`, the z-score is -0.00372.

In the case of `Cc1nc(/N=C(\N)NC(=O)N2c3ccccc3Sc3ccccc32)nc2ccccc12`, the z-score was -0.0514.

On to `Cc1ccc(NC(=O)CN(C)C(=O)CSc2nncn2C)cc1`, for which the z-score is -0.0873.

`CSc1nc(C)nc2c1c(=O)n(C)c(=O)n2C` registered a z-score of 0.179.

As to `OCCN1CCN(CC#CCn2c3ccccc3c3ccccc32)CC1`, the z-score was -0.418.

As for `COc1ccc(C/C(C)=N/NC(=S)Nc2ccc(C(C)C)cc2)cc1`, the z-score was 0.256.

Molecule `O=C(Cn1cnc2c(nnn2Cc2ccc(F)cc2)c1=O)NC1CCCC1` had a z-score of 1.14.

As for `O=c1cc(-c2ccccc2)nc2nc(COc3ccccc3)[nH]n12`, the z-score is -0.82.

In turn, `Cc1cc(Cl)ccc1OC(C)C(=O)Nc1ccc([N+](=O)[O-])cn1` (configuration not stated) yielded a z-score of 2.07.

Take `CC(=O)CCS(=O)(=O)c1ccc(Oc2ccc(S(=O)(=O)CCC(C)=O)cc2)cc1`: the z-score is 1.21.

In turn, `O=C(/C=C/c1cccc(Cl)c1)c1nc2ccccc2[nH]1` returned a z-score of -0.227.

In the case of `CCOc1cccc(NC(=O)C2CC(=O)NC(=Nc3ccccc3)S2)c1` (configuration not stated), the z-score is 0.244.

The molecule `CCCSc1nnc2[nH]c(=O)cc(N)n12` displayed a z-score of -0.106.

`CCOC(=O)c1[nH]c2ccc(OC)cc2c1NC(=O)/C=C/c1ccc2c(c1)OCO2` had a z-score of -0.205.

`Cc1ccc(C)n1-c1ccc(NC(=O)c2ccccc2)cc1`: the z-score is -0.116.

`CC(=O)NCc1nc2ccccc2n1C(C)C`: the z-score was -0.16.

`O=C(CSCc1cccc(Cl)c1)N/N=C/c1ccc(OCC(=O)N2CCCCC2)cc1` registered a z-score of -0.284.

For `O=C(CN1C(=O)c2ccccc2S1(=O)=O)N1CCOCC1`, the z-score came out at 0.229.

The molecule `COC(=O)c1cc(=O)n(Cc2ccc3c(c2)OCO3)c(=Nc2ccc(F)c(Cl)c2)s1` came in with a z-score of -0.162.

The molecule `O=C1CCCN1c1ccc(S(=O)(=O)N2CCN(c3ccccn3)CC2)cc1` came in with a z-score of -0.208.

`Cc1ccc(S(=O)(=O)NC(C(=O)Oc2ccc3ccc(=O)oc3c2)c2ccccc2)cc1` (configuration not stated) returned a z-score of -0.316.

Molecule `O=C(NCc1ccco1)C(NS(=O)(=O)c1cccc2nsnc12)c1ccccc1` (configuration not stated) showed a z-score of 0.634.

Molecule `Cc1ccc(S(=O)(=O)N2CCN(c3ccc4nnc(-c5ccccc5)n4n3)CC2)cc1` gave a z-score of -0.183.

`Cc1ccc(NC(=S)NCCO)c(C)c1` came in with a z-score of -0.044.

Regarding `Cc1nc2ccccc2nc1CSc1nnc(N)s1`, the z-score came out at 0.0642.

Molecule `Cc1cccc(C)c1NC(=O)C(NC=O)c1ccccc1` (configuration not stated) displayed a z-score of -0.0702.

The molecule `CC1CCCN(C(=O)C(C)Sc2nc(-c3ccccc3)cc(C(F)(F)F)n2)C1` (configuration not stated) yielded a z-score of -0.5.

The molecule `CN1CCc2c(sc3c2C(=O)NC(c2cccs2)N3)C1` (configuration not stated) had a z-score of -0.402.

In turn, `Cc1ccc(/C=C2/C(=O)N(c3ccccc3)C(=S)N2C)o1` returned a z-score of -0.3.

In turn, `CCn1nnnc1SCC(=O)c1cccc(OC)c1` displayed a z-score of 0.012.

For `Cc1cc(C)nc(SCC(=O)Nc2ccc(S(=O)(=O)Nc3onc(C)c3C)cc2)n1`, the z-score is -0.02.

For the molecule `COc1ccc(OCc2nn3c(Cn4cnc5ccccc54)nnc3s2)cc1`, the z-score was found to be 0.0418.

In turn, `COc1c([N+](=O)[O-])c(=O)n(-c2ccccc2)c2ccccc12` returned a z-score of 0.0283.

`CC(=O)C1C(c2cccc([N+](=O)[O-])c2)C2C(C)=NN=C2CC1(C)O` (configuration not stated) came in with a z-score of -0.0665.

Molecule `Cc1ccc(-c2ccc(/C=C(\C#N)C(=O)Nc3cc(C)nn3-c3ccccc3)o2)cc1` showed a z-score of -1.77.

Regarding `O=C(CSc1ncnc2c1cnn2Cc1ccccc1)Nc1ccc2c(c1)OCCO2`, the z-score turned out to be 0.549.

With `O=C(NCc1ccccc1C(F)(F)F)C12CN(Cc3ccccc3)CC1C(c1ccc([N+](=O)[O-])cc1)=NO2` (configuration not stated), the z-score is -0.395.

Turning to `CC(Oc1ccc(Cl)cc1Cl)c1nc(-c2ccc(NC(=O)c3ccccn3)cc2)no1` (configuration not stated), the z-score is -0.152.

`Cc1c(Br)c([N+](=O)[O-])nn1CC(=O)Nc1sc2c(c1C(=O)OC(C)C)CCCC2`: the z-score was -0.096.

The molecule `Cc1csc2ncc(C(=O)N3CCc4ccccc43)c(=O)n12` registered a z-score of -0.249.

Take `Cc1[nH]c2ccccc2c1C(=O)CSC(=S)N1CCCCC1`: the z-score is -0.247.

`CCSc1ncc(C#N)c(N)n1` yielded a z-score of 0.108.

Consider `COc1cc(Nc2nc(SCC#N)nc3ccccc23)cc(OC)c1OC`, for which the z-score stood at 2.31.

Regarding `CCN1CCc2c(C#N)c(NCc3ccccc3)nc(NCCO)c2C1`, the z-score was -0.101.

In turn, `COc1ccc2nc(NC(=O)CSc3nnc(C)s3)sc2c1` showed a z-score of -0.0478.

Take `COc1cccc(NC(=O)c2cc(-c3cccnc3)nc3c(Cl)cccc23)c1`: the z-score was -0.244.

`C=CCNC(=O)C1CCN(S(=O)(=O)c2ccc(Br)cc2)CC1` gave a z-score of 0.689.

Turning to `Cc1nn(C(=O)c2nn(C)cc2Cl)c(C)c1Br`, the z-score was found to be 0.0765.

With `CCOc1ccccc1OCCCCOc1ccccc1F`, the z-score was found to be 0.0236.

As for `CCCOC(=O)c1ccc(NC(=O)c2ccoc2C)cc1`, the z-score worked out at 2.24.

On to `CC(=NCCCn1ccnc1)C1=C(O)c2ccccc2C1=O`, for which the z-score was -0.322.

In the case of `Cc1cc(NC(=O)CSc2nc(-c3ccc(Cl)cc3)cs2)no1`, the z-score stood at 0.219.

For `Cc1cnc(NC(=O)CSc2c(Cl)cccc2Cl)s1`, the z-score was -0.212.

Turning to `O=C(Nc1cnccn1)c1cccnc1`, the z-score came to 0.255.

The molecule `Cc1cccc(NC(=O)CN(C)S(=O)(=O)c2ccc(Br)cc2)n1` registered a z-score of 0.0747.

For `COc1ccc2oc(=O)c(C(=O)N3CCN(c4ccccc4F)CC3)cc2c1`, the z-score is -0.0962.

Take `CC(=O)C1C(c2ccc(C)cc2)c2c(n[nH]c2C)CC1(C)O` (configuration not stated): the z-score is -0.966.

In the case of `COc1ccc(/C=C2\SC(=O)N=C2N)cc1`, the z-score is -0.385.

In the case of `O=C1/C(=C/c2cccnc2)Oc2cc(OS(=O)(=O)c3ccc(F)cc3)ccc21`, the z-score is -0.393.

For the molecule `N=c1c(C(=O)NC2CCCC2)cc2c(=O)n3ccccc3nc2n1C1CCCC1`, the z-score is -0.736.
